According to article PMC4336329 (PLoS ONE, 2015):
Screen size: about 310,000 compounds; about 14,000 (4.5%) showed an effect of 50% or more. The effect is printed as a negative number. This is one part of the list.

Target: human ether-à-go-go-related gene (hERG) potassium channel (human, UniProt Q12809)
Assay: primary screen, population patch clamp on CHO cells stably expressing hERG
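Further: peak tail current of the secondary pulse compared with the same well before compound.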

Sequence of human ether-à-go-go-related gene (hERG) potassium channel (Q12809 whole entry, looked up): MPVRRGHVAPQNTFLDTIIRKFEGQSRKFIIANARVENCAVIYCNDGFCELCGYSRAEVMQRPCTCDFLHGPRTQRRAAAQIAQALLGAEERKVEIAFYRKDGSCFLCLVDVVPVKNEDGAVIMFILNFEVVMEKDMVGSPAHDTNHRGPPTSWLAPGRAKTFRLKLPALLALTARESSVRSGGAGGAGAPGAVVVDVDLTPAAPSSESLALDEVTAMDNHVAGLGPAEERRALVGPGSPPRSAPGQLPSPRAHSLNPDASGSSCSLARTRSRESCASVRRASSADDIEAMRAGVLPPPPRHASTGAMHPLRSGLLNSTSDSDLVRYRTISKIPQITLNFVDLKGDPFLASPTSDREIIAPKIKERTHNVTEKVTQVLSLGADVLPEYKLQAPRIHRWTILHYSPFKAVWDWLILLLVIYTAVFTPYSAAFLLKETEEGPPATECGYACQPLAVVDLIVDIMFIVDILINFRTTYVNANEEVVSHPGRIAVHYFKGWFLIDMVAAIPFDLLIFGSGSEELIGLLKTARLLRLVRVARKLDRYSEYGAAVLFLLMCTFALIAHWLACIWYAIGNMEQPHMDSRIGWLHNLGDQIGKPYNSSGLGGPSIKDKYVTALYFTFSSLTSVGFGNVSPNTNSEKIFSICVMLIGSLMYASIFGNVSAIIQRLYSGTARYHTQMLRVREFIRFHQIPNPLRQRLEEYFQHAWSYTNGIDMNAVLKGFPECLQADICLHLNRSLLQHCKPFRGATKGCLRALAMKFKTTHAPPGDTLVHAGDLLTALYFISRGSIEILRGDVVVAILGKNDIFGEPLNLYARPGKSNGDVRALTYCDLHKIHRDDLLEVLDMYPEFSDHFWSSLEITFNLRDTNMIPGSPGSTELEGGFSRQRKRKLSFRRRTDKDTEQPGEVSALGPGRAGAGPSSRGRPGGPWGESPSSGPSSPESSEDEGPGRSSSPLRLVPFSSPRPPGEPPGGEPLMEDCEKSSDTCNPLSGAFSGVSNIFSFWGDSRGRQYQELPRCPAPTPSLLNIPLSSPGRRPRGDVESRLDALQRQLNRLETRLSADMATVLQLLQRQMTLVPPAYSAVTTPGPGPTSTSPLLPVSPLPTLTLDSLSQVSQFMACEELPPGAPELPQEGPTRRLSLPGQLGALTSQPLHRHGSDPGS

SMILES	hERG current change (%, negative = inhibition) at 10uM [%]
C=CCOc1cccc(C2/C(=C(/O)c3ccc(F)cc3)C(=O)C(=O)N2CCN2CCOCC2)c1 (stereo not drawn)	14.7
N#CC(C#N)=c1ccc2c(c1)N1C(c3ccccc3)=CC(c3ccccc3)C3CCCCC31N=2 (stereo not drawn)	6.61
CC1(C(O)(C#CC[N+]2(C)CCCCC2)c2ccccc2)CCCC1.[I-] (stereo not drawn)	29.6
CCCCOc1ccc(C(=O)NCC(=O)NCCCn2nc(C)cc2C)cc1	-17
CCOc1cccc(-c2nnc(SCC(=O)Nc3cc(C)ccc3OC)n2N)c1	-16.9
Cc1nn(-c2ccccc2)c2sc(C(=O)c3c(N)n(C)c(=O)n(C)c3=O)cc12	-2.81
Nc1nnnn1CC(=O)N/N=C/c1cc([N+](=O)[O-])ccc1Cl	25.5
COc1ccccc1-n1c(SCC(N)=O)nc2c(c1=O)SCC2	5.57
Cc1ccc(NC(=O)CCc2nnc(SCC(=O)Nc3ccccc3C)n2C)cc1Cl	14.5
CCn1c(=O)c(C(=O)NCCCc2ccccc2)c(O)c2ccccc21	8.18
Cc1cc(C(=O)Cn2cnc3ccccc3c2=O)c(C)n1C1CC1	22.6
N#C/C(=C(/O)CSc1ccccc1C(=O)O)c1nc2ccccc2s1	15.8
COc1ccc(CNC(=O)CCS(=O)(=O)c2ccc3c(c2)NC(=O)CS3)cc1	-10.6
COc1cc([C@H](Cc2ccccc2)NC(C)=O)oc(=O)c1	-20.4
COCCNC(=O)CC(c1ccccc1)c1ccccc1	0.834
COc1cc2ccccc2cc1C(=O)NC(=S)Nc1cccc(C(=O)O)c1C	-4.09
Cc1cccn2c(=O)c3cc(C#N)c(=O)n(-c4c(C)n(C)n(-c5ccccc5)c4=O)c3nc12	-7.5
CS(=O)(=O)c1ccc(C(=O)OC2CCOC2=O)cc1[N+](=O)[O-] (stereo not drawn)	6.5
Cc1ccc(S(=O)(=O)N2CCC(C(=O)N(C)C3CCS(=O)(=O)C3)CC2)cc1 (stereo not drawn)	-7.72
COc1ccc(CCN2C(=O)C3C4C=CC(C4)C3C2=O)cc1OC (stereo not drawn)	4.59
CCOc1c(C)cnc2c1c(=O)n(Cc1ccc(Cl)cc1)c(=O)n2C	-10.3

SMILES	hERG current change (%, negative = inhibition) at 10uM [%]
COCCCNC(=S)N1CCCN(c2nc3cc(C)ccc3cc2C#N)CC1	-13.6
O=C(NCc1ccc(F)cc1)C1CCCN(S(=O)(=O)c2ccc(Br)s2)C1 (stereo not drawn)	-15.7
O=C(C1=C[C@@H](c2ccc(Br)cc2)C[C@@H](OCc2ccc(CO)cc2)O1)N1CCOCC1	-31.5
O=C(NNC(=O)C12CC3CC(CC(C3)C1)C2)c1ccccc1O	-0.306
COCCNC(=O)CCc1nnc2ccc(N3CCC(C)CC3)nn12	21.8
COc1ccc(C2=NOC(C(=O)Nc3cc(C)on3)C2)cc1OC (stereo not drawn)	1.39
Cc1nc(-c2cccc(Cl)c2)n[nH]1	-17.3
COc1ccc(NC(=O)N2C3CCCC2CC(NC(=O)C2CC2)C3)cc1 (stereo not drawn)	21.9
CC1(N2CCOCC2)CC2(O)C(=[N+]1[O-])CCc1nonc12 (stereo not drawn)	18.9
CCOC(=O)C1=NN(C(=O)c2ccc(OC)cc2)C(O)(c2ccc(Cl)cc2)C1 (stereo not drawn)	-75.5
N#Cc1ccc(CSc2nnc(-c3ccccc3)n2Cc2ccco2)cc1	-26.8
CCOc1cc(/C=C(/C#N)C(=O)Nc2ccc(O)cc2)cc(Br)c1O	-14.3
Cc1nn(CC(=O)N(C)C2CCS(=O)(=O)C2)c(C)c1S(=O)(=O)N(C)C (stereo not drawn)	-1.04
Cc1ccc(S(=O)(=O)N2CCN(C(=O)Cn3nc(C(=O)O)c4ccccc4c3=O)CC2)cc1	11.5
CSCC[C@H](NC(=O)N1CCn2c1nc1ccccc12)C(=O)NCc1ccccc1	-31.4
O=C(c1cccc2ccccc12)C1CCCN(C(=O)CCN2CCCO2)C1 (stereo not drawn)	-5.36
COc1ccc(/C=C2/C(=O)N(Cc3ccccc3)N=C2C)cc1	2.7
COc1ccc(CCN(Cc2cc3cc(C)ccc3[nH]c2=O)C(=O)N2CCCC2)cc1OC	-20.8
Br.CN1C(c2ccc(F)cc2)=CS/C1=C(/C#N)c1nnc(N2CCOCC2)n1-c1ccccc1	-23.8
COc1ccc(NC(=O)C2=C(C)NC(=O)NC2c2cccc(OC)c2OC)c(OC)c1 (stereo not drawn)	22.8
O=C(NCc1ccco1)c1ccc2c(c1)N(Cc1ccccc1)CCS2	-10.3
